Drawing on ChEMBL document CHEMBL1135086, this text covers Km and Vmax (uM min-1 mg-1) for 1 substance.

The subject of the data set is O=[N+]([O-])c1ccc(O)c(O)c1. Description: Effect on the Kinetic parameters of L-citrulline formation from L-arginine catalyzed by neuronal nitric oxide synthase determined at 100 uM.

Broadly, the Km is the concentration of substrate that gives half-maximal velocity. For “Nitric oxide synthase 1 (Rattus norvegicus) (no sequence given)”, the Km was 16 µM and the Vmax (uM min-1 mg-1) amounted to 0.57.
